Assay results: publication PMC12713088
Results are given in words; binding and its absence hold for the method and conditions named. Some entries that bind do so weakly or less than the wild type. Where a sequence is shown, tags or fusion partners need not be part of it.

T1: NAC050-MBP, recombinant (Arabidopsis thaliana) (UniProt Q9SQX9)
T1 sequence: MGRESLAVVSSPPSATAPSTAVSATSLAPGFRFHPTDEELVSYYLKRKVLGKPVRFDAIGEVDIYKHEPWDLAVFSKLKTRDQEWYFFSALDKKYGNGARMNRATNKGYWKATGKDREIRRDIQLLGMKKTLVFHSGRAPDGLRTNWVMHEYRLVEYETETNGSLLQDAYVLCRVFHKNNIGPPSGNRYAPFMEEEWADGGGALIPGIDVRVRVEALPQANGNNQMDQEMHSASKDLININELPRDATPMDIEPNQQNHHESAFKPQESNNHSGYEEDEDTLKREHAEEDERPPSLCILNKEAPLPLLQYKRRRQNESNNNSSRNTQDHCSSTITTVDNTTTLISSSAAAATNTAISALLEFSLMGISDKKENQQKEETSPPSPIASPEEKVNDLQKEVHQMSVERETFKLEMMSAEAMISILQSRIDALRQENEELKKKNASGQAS

T2: INCURVATA 11 (ICU11), yeast two-hybrid fusion (Arabidopsis thaliana) (UniProt Q3ED68)
T2 sequence: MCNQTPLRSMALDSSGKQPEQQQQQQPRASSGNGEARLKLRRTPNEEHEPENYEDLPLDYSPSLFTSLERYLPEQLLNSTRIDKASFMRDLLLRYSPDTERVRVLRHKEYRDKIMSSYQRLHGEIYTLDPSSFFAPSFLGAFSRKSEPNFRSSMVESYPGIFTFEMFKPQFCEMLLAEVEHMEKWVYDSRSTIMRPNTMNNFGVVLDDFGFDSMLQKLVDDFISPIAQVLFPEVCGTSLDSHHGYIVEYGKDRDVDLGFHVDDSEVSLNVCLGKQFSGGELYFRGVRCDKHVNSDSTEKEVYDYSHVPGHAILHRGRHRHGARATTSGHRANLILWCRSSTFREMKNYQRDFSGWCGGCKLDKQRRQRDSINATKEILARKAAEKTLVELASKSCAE

T3: NAC050, yeast two-hybrid fusion (Arabidopsis thaliana), Q9SQX9
T3 chain: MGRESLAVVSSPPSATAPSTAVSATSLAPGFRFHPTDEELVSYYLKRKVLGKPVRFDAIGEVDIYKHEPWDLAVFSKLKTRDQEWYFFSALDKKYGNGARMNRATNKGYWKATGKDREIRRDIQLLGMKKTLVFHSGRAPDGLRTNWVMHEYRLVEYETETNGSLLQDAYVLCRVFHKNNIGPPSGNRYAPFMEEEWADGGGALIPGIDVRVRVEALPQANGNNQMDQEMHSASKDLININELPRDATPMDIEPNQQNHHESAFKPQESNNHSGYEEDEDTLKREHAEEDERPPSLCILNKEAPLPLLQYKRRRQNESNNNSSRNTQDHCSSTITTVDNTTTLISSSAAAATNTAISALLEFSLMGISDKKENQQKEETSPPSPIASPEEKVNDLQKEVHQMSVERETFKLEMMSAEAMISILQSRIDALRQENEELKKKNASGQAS

T4: NAC052, yeast two-hybrid fusion (Arabidopsis thaliana), Q9SQY0
T4 chain: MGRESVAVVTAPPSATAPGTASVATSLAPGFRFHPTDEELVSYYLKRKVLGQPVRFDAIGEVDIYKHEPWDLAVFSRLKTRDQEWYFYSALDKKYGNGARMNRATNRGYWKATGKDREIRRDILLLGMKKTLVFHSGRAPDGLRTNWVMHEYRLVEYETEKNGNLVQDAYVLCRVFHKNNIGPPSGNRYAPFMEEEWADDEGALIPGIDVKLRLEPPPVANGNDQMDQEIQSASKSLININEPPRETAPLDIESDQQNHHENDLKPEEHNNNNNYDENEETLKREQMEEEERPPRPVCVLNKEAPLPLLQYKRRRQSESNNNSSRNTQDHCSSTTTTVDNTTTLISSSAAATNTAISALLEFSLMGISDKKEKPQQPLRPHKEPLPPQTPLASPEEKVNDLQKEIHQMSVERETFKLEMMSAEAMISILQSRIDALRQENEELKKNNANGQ


What was measured:
[1] = target: T1, NAC050-MBP, recombinant (Arabidopsis thaliana); assay: pull-down; purified proteins mixed in GST-tag lysis buffer (20 mM Tris-HCl pH 7.5, 150 mM NaCl, 1 mM DTT) at 4 °C for 1 h, then GST or MBP beads; immunoblot with GST, MBP or His antibody; both purified
[2] = target: JMJ14-Flag, recombinant (Arabidopsis thaliana), Q8GUI6; assay: as above; details: remark: other sources report otherwise
[3] = target: T1, NAC050-MBP, recombinant (Arabidopsis thaliana); assay: SEC; purified proteins mixed in equivalent molar amounts, 4 °C overnight, Superose 6 10/300GL; fractions detected by immunoblotting (GST, FLAG, MBP, HIS); both purified
[4] = target: T2, INCURVATA 11 (ICU11), yeast two-hybrid fusion (Arabidopsis thaliana); assay: two-hybrid; pGADT7 and pGBKT7 fusions, strains AH109 and Y187 mated; growth on SD-LWH with 0 or 3 mM 3-AT
[5] = target: T3, NAC050, yeast two-hybrid fusion …; assay: as above; details: remark: other sources report otherwise
[6] = target: T4, NAC052, yeast two-hybrid fusion …; assay: as above; details: remark: other sources report otherwise

| binding [4] | binding [6] | Binder | other results |
| --- | --- | --- | --- |
| – | – | ICU11, recombinant, GST- or MBP-tagged (pull-down) (protein, UniProt Q3ED68 1-397) MCNQTPLRSMALDSSGKQPEQQQQQQPRASSGNGEARLKLRRTPNEEHEPENYEDLPLDYSPSLFTSLERYLPEQLLNSTRIDKASFMRDLLLRYSPDTERVRVLRHKEYRDKIMSSYQRLHGEIYTLDPSSFFAPSFLGAFSRKSEPNFRSSMVESYPGIFTFEMFKPQFCEMLLAEVEHMEKWVYDSRSTIMRPNTMNNFGVVLDDFGFDSMLQKLVDDFISPIAQVLFPEVCGTSLDSHHGYIVEYGKDRDVDLGFHVDDSEVSLNVCLGKQFSGGELYFRGVRCDKHVNSDSTEKEVYDYSHVPGHAILHRGRHRHGARATTSGHRANLILWCRSSTFREMKNYQRDFSGWCGGCKLDKQRRQRDSINATKEILARKAAEKTLVELASKSCAE | binding [1]: binds |
| – | – | ICU11, recombinant, GST- or MBP-tagged (pull-down), Q3ED68 1-397 (protein) MCNQTPLRSMALDSSGKQPEQQQQQQPRASSGNGEARLKLRRTPNEEHEPENYEDLPLDYSPSLFTSLERYLPEQLLNSTRIDKASFMRDLLLRYSPDTERVRVLRHKEYRDKIMSSYQRLHGEIYTLDPSSFFAPSFLGAFSRKSEPNFRSSMVESYPGIFTFEMFKPQFCEMLLAEVEHMEKWVYDSRSTIMRPNTMNNFGVVLDDFGFDSMLQKLVDDFISPIAQVLFPEVCGTSLDSHHGYIVEYGKDRDVDLGFHVDDSEVSLNVCLGKQFSGGELYFRGVRCDKHVNSDSTEKEVYDYSHVPGHAILHRGRHRHGARATTSGHRANLILWCRSSTFREMKNYQRDFSGWCGGCKLDKQRRQRDSINATKEILARKAAEKTLVELASKSCAE | binding [2]: no binding |
| – | – | ICU11-GST, recombinant (gel filtration) (protein, UniProt Q3ED68 1-397) MCNQTPLRSMALDSSGKQPEQQQQQQPRASSGNGEARLKLRRTPNEEHEPENYEDLPLDYSPSLFTSLERYLPEQLLNSTRIDKASFMRDLLLRYSPDTERVRVLRHKEYRDKIMSSYQRLHGEIYTLDPSSFFAPSFLGAFSRKSEPNFRSSMVESYPGIFTFEMFKPQFCEMLLAEVEHMEKWVYDSRSTIMRPNTMNNFGVVLDDFGFDSMLQKLVDDFISPIAQVLFPEVCGTSLDSHHGYIVEYGKDRDVDLGFHVDDSEVSLNVCLGKQFSGGELYFRGVRCDKHVNSDSTEKEVYDYSHVPGHAILHRGRHRHGARATTSGHRANLILWCRSSTFREMKNYQRDFSGWCGGCKLDKQRRQRDSINATKEILARKAAEKTLVELASKSCAE | binding [3]: binds |
| binds | – | TRB2, yeast two-hybrid fusion (protein, UniProt Q9FJW5 1-299) MGAPKQKWTPEEEAALKAGVLKHGTGKWRTILSDTEFSLILKSRSNVDLKDKWRNISVTALWGSRKKAKLALKRTPPGTKQDDNNTALTIVALTNDDERAKPTSPGGSGGGSPRTCASKRSITSLDKIIFEAITNLRELRGSDRTSIFLYIEENFKTPPNMKRHVAVRLKHLSSNGTLVKIKHKYRFSSNFIPAGARQKAPQLFLEGNNKKDPTKPEENGANSLTKFRVDGELYMIKGMTAQEAAEAAARAVAEAEFAITEAEQAAKEAERAEAEAEAAQIFAKAAMKALKFRIRNHPW | – |
| – | no binding | TRB2, yeast two-hybrid fusion, Q9FJW5 1-299 (protein) MGAPKQKWTPEEEAALKAGVLKHGTGKWRTILSDTEFSLILKSRSNVDLKDKWRNISVTALWGSRKKAKLALKRTPPGTKQDDNNTALTIVALTNDDERAKPTSPGGSGGGSPRTCASKRSITSLDKIIFEAITNLRELRGSDRTSIFLYIEENFKTPPNMKRHVAVRLKHLSSNGTLVKIKHKYRFSSNFIPAGARQKAPQLFLEGNNKKDPTKPEENGANSLTKFRVDGELYMIKGMTAQEAAEAAARAVAEAEFAITEAEQAAKEAERAEAEAEAAQIFAKAAMKALKFRIRNHPW | binding [5]: no binding |
| binds | – | TRB1, yeast two-hybrid fusion (protein, UniProt Q8VWK4 1-300) MGAPKQKWTQEEESALKSGVIKHGPGKWRTILKDPEFSGVLYLRSNVDLKDKWRNMSVMANGWGSREKSRLAVKRTFSLPKQEENSLALTNSLQSDEENVDATSGLQVSSNPPPRRPNVRLDSLIMEAIATLKEPGGCNKTTIGAYIEDQYHAPPDFKRLLSTKLKYLTSCGKLVKVKRKYRIPNSTPLSSHRRKGLGVFGGKQRTSSLPSPKTDIDEVNFQTRSQIDTEIARMKSMNVHEAAAVAAQAVAEAEAAMAEAEEAAKEAEAAEAEAEAAQAFAEEASKTLKGRNICKMMIRA | – |
| – | – | TRB1-His, recombinant, Q8VWK4 1-300 (protein) MGAPKQKWTQEEESALKSGVIKHGPGKWRTILKDPEFSGVLYLRSNVDLKDKWRNMSVMANGWGSREKSRLAVKRTFSLPKQEENSLALTNSLQSDEENVDATSGLQVSSNPPPRRPNVRLDSLIMEAIATLKEPGGCNKTTIGAYIEDQYHAPPDFKRLLSTKLKYLTSCGKLVKVKRKYRIPNSTPLSSHRRKGLGVFGGKQRTSSLPSPKTDIDEVNFQTRSQIDTEIARMKSMNVHEAAAVAAQAVAEAEAAMAEAEEAAKEAEAAEAEAEAAQAFAEEASKTLKGRNICKMMIRA | binding [2]: no binding |
| – | no binding | TRB1, yeast two-hybrid fusion, Q8VWK4 1-300 (protein) MGAPKQKWTQEEESALKSGVIKHGPGKWRTILKDPEFSGVLYLRSNVDLKDKWRNMSVMANGWGSREKSRLAVKRTFSLPKQEENSLALTNSLQSDEENVDATSGLQVSSNPPPRRPNVRLDSLIMEAIATLKEPGGCNKTTIGAYIEDQYHAPPDFKRLLSTKLKYLTSCGKLVKVKRKYRIPNSTPLSSHRRKGLGVFGGKQRTSSLPSPKTDIDEVNFQTRSQIDTEIARMKSMNVHEAAAVAAQAVAEAEAAMAEAEEAAKEAEAAEAEAEAAQAFAEEASKTLKGRNICKMMIRA | – |
| binds | – | TRB3, yeast two-hybrid fusion (protein, UniProt Q9M2X3 1-295) MGAPKLKWTPEEETALKAGVLKHGTGKWRTILSDPVYSTILKSRSNVDLKDKWRNISVTALWGSRKKAKLALKRTPLSGSRQDDNATAITIVSLANGDVGGQQIDAPSPPAGSCEPPRPSTSVDKIILEAITSLKRPFGPDGKSILMYIEENFKMQPDMKRLVTSRLKYLTNVGTLVKKKHKYRISQNYMAEGEGQRSPQLLLEGNKENTPKPEENGVKNLTKSQVGGEVMIMGMTEKEAAAAAARAVAEAEFAMAEAEEAAREADKAEAEAEAAHIFAKAAMKAVKYRMHSQTR | – |
| – | no binding | TRB3, yeast two-hybrid fusion, Q9M2X3 1-295 (protein) MGAPKLKWTPEEETALKAGVLKHGTGKWRTILSDPVYSTILKSRSNVDLKDKWRNISVTALWGSRKKAKLALKRTPLSGSRQDDNATAITIVSLANGDVGGQQIDAPSPPAGSCEPPRPSTSVDKIILEAITSLKRPFGPDGKSILMYIEENFKMQPDMKRLVTSRLKYLTNVGTLVKKKHKYRISQNYMAEGEGQRSPQLLLEGNKENTPKPEENGVKNLTKSQVGGEVMIMGMTEKEAAAAAARAVAEAEFAMAEAEEAAREADKAEAEAEAAHIFAKAAMKAVKYRMHSQTR | binding [5]: no binding |
